# Source: PMC6919601, “Identification of Plasmodium dipeptidyl aminopeptidase allosteric inhibitors by high throughput screening” (PLoS ONE, 2019)
# Screen size: about 110,000 compounds; about 230 (0.21%) showed an effect of 50% or more. This is one part of the list.
# Target: DPAP1 (Plasmodium falciparum, UniProt Q8IIJ9)
# Experiment: primary screen, percent inhibition; read by cleavage of a fluorogenic dipeptide substrate; higher = more effect of the substance
# Design: species or system P. falciparum D10 trophozoite lysates; single well
# 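Further: 30 min substrate incubation versus DMSO and 10 µM JCP410 controls.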
# Sequence of DPAP1 (Q8IIJ9 whole entry, looked up): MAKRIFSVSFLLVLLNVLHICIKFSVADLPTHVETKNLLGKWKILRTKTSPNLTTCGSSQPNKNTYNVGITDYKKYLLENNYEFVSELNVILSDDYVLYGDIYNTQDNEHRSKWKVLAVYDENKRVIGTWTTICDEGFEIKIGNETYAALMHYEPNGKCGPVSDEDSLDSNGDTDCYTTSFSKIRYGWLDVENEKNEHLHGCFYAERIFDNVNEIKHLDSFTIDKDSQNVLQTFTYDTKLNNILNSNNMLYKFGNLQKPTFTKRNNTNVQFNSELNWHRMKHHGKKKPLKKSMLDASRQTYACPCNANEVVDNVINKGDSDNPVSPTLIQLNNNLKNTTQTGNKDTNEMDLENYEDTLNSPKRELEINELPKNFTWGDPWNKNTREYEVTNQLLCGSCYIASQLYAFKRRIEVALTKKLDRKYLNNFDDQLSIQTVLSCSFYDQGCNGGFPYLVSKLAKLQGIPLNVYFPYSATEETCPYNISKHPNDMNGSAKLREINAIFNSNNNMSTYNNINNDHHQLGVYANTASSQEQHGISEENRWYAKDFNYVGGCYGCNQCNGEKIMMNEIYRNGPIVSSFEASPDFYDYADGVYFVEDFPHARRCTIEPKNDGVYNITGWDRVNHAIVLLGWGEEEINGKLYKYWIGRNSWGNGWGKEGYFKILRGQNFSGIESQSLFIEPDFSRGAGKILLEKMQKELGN
row,Structure (SMILES),% Inhibition @ 10 uM
1,O=C(NCC(=O)N1CCOCC1)c1ccccc1,15.6%
2,Cc1sc2ncnc(NCCO)c2c1C,-8.21%
3,Fc1ccc(F)c(CN2CCN(c3ccccc3F)CC2)c1,-2.34%
4,Cc1cc(C)c(/C=c2\sc3nc4cc(C)c(C)cc4n3c2=O)cc1C,4.52%
5,c1ccc2c3c(c(CN4CCCC4)cc2c1)COC3,0.674%
6,Cn1cc(S(=O)(=O)N2CCOCC2)cc1C(=O)N1CCn2c1nc1ccccc12,-6.32%
7,Cc1nnc2sc(NC(=O)c3ccccc3F)nn12,4.86%
8,O=c1/c(=C/C2=Cc3ccccc3OC2)sc2nc(-c3cccc(Cl)c3)nn12,0.561%
9,CCC1CCCCN1Cc1ccc(CN2CNc3c(c(=O)n(C)c(=O)n3C)C2)o1 (stereo not shown),2.34%
10,Cc1ccc(NC(=O)c2ccc3c(c2)CCN3S(C)(=O)=O)cc1,2.48%
11,COc1ccc(CNC(=O)CN(c2ccccc2)S(=O)(=O)c2ccccc2)cc1,9.01%
12,COc1cccc(C2C(C#N)=C(N)Oc3[nH]nc(C)c32)c1OC (stereo not shown),-4.33%
13,CCOc1ccc2nc(SCC(=O)Nc3ccccc3)c(C#N)cc2c1,7.17%
14,CN1C(=O)/C(=C/c2ccco2)S/C1=N\c1ccc(N2CCOCC2)cc1,8.7%
15,CCN1C(=O)CC(c2cccnc2)=Nc2ccccc21,1.57%
16,O=C(c1cc(-c2ccc(Cl)s2)nc2ccccc12)N1CCOCC1,-2.53%
17,Fc1ccc(-c2csc(Nc3ccc4c(c3)OCO4)n2)cc1,2%
18,O=C(ON1C(=O)CCC1=O)c1ccc(Cl)cc1Cl,8.74%
19,CC(C)Oc1ccc(NC(=O)c2ccco2)cc1,-5.5%
20,O=C(CCc1ccccc1)Nc1ccc(-c2ccc(NC(=O)CCc3ccccc3)cc2)cc1,0.968%
21,COc1cccc(N2CCN(C3CCN(C(C)=O)CC3)CC2)c1,-2.02%
22,COc1ccc(Br)cc1CNC(=O)Cc1cccs1,0.0198%
23,COc1ccc(C(CC(=O)Nc2ccc(C)cn2)N2Cc3ccccc3C2=O)cc1 (stereo not shown),-10.3%

row,Structure (SMILES),% Inhibition @ 10 uM
1,COCc1cc(O)n2nc(-c3ccc(C(C)(C)C)cc3)cc2n1,-7.23%
2,COc1ccc(/C=C(\C#N)c2nc(-c3cc4ccccc4c(=O)o3)cs2)cc1,-0.239%
3,COC(=O)c1cnn(-c2ccccc2)c1N,1.63%
4,CCC1CCC2(CC1)SCC(=O)N2c1ccc(F)cc1 (stereo not shown),-2.67%
5,Cc1ccc2onc(CNC(=O)NCCCOC(C)C)c2c1,-2.26%
6,Fc1ccccc1CNCc1cccn1-c1nnc(N2CCOCC2)s1,-10.7%
7,Oc1nc(-c2ccccc2)nc2c1C1(CCCCC1)Cc1ccccc1-2,-2.55%
8,Cn1c(SCc2nc(-c3ccc(Cl)cc3)no2)nnc1-c1ccncc1,-0.45%
9,c1ccc(OCCCCCCN2CCCC2)cc1,-4.31%
10,CC(C)CCCNc1nc(N2CCOCC2)nc(N2CCOCC2)n1,-1.43%
11,CN1CCc2c1nc1ccccc1c2N,1.24%
12,CC(C)(C)S(=O)(=O)c1cccc2ccccc12,-2.18%
13,CCOC(=O)N1CCC(NC(=O)C2CCCN(S(=O)(=O)c3cccc4nonc34)C2)CC1 (stereo not shown),-5.88%
14,Cc1ccc2[nH]c3c(cc(Nc4ccccc4)c4c(=O)c5ccccc5c(=O)c43)oc2c1,-2.91%
15,COc1ccc(CC(=O)Nc2nc3nc(C)cc(C)n3n2)cc1,5.2%
16,c1ccc(-c2cnc(-c3ccccc3)nc2)cc1,-3.27%
17,O=C(O)CNC(=O)/C(=C\c1ccccc1F)NC(=O)c1ccccc1,-1.52%
18,N#C/C(=C\c1ccccc1F)c1nc(-c2ccc(Cl)cc2)cs1,-3.67%
19,CC(C)CCN(CN1C(=O)c2ccccc2C1=O)CN1C(=O)c2ccccc2C1=O,-3.04%
20,CCOC(=O)N1CCN(C(=O)CS(=O)(=O)Cc2nc(-c3cccc(OC)c3)oc2C)CC1,-3.7%
21,COCCNc1oc(/C=C/c2cc(OC)c(OC)c(OC)c2)nc1C#N,4.13%
22,Cc1nc(N)c2c3c(sc2n1)CCCC3,4.93%
23,Cc1ccc(C)c(NC(=O)c2ccccc2C(=O)O)c1,2.48%

row,Structure (SMILES),% Inhibition @ 10 uM
1,Cc1cccc(-n2cnc3cc(C(=O)NCc4ccco4)ccc32)c1,-1.99%
2,CC(C)C12CN3CC(C(C)C)(CN(C1)C3C(O)C(O)C(O)CO)C2=O (stereo not shown),2.09%
3,COc1ccc(CNc2nc3c(S(=O)(=O)c4ccc(C(C)C)cc4)nnn3c3ccccc23)cc1,-4.85%
4,Cc1ccc(S(=O)(=O)N(C)CC(=O)c2ccccc2)cc1,2.36%
5,O=C(CN1CCOCC1)Nc1c2c(nc3c1CCC3)CCCC2,-6.34%
6,COc1ccc(C(=O)c2sc(NCc3ccccc3)nc2N)cc1,-5.17%
7,N#Cc1sc2nc3c(cc2c1N)CCCC3,1.41%
8,CCN(CC)CCNc1nc2c(c(=O)n(C)c(=O)n2C)n1C,-3.14%
9,Cc1ccc(C)c(OCC(=O)Nc2ccc3c(c2)OCO3)c1,-7.63%
10,O=C(Nc1ccc(F)c(Cl)c1)C12CC3CC(C1)CC(n1cnc(Br)n1)(C3)C2,-3.12%
11,CCN(CC)CCCNC(=O)C1CCN(c2nc3c(C)cc(C)cc3s2)CC1,-1.58%
12,Cc1cc2c(cc1C)-c1nnc(-c3ccco3)n1C(C)(C)C2,3.82%
13,COc1ccc(C2(CNC(=O)COc3ccccc3)CCOCC2)cc1,5.09%
14,CC(NC(=O)Cn1cc(C(=O)C(F)(F)F)c2ccccc21)c1ccccc1 (stereo not shown),-1.72%
15,COc1ccccc1N1CCN(Cc2ccccc2Br)CC1,-3.65%
16,CCc1cc2c(=O)c(Oc3ccccc3)coc2cc1OC,-2.25%
17,O=C(/N=C1\SC2CS(=O)(=O)CC2N1c1ccccc1)c1ccccc1 (stereo not shown),2.17%
18,COc1cc(CCC(=O)NCc2ccco2)on1,2.41%
19,O=C(c1cccc2ccccc12)N(Cc1ccc(Cl)cc1Cl)c1cccc(Cl)c1,3.42%
20,Cc1c(CN2CCN(c3cccc(Cl)c3)CC2)c(=O)n(-c2ccccc2)n1C,3.35%
21,COc1ccc(/C=C(/C#N)C(N)=O)cc1,-3.38%
